# Source: PubChem BioAssay AID1240 (Sanford-Burnham Center for Chemical Genomics, 2008)
# Among all 50,000 compounds or so, about 800 (1.6%) showed an effect of 50% or more. The list shows a part of the results.
# Biological target: Bcl-2-like protein 10 (Homo sapiens) (UniProt Q9HD36)
# Assay: Phenotype converters, Bcl-B/TR3 peptide binding displacement, primary biochemical FP (AID 1240);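 also: 0% = Bcl-B with tracer peptide and DMSO and 100% = tracer peptide lacking Bcl-B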
# Conditions: GST-Bcl-B / FITC-TR3 peptide fluorescence polarization; stronger effect = higher value; compound at 3.75 mg/L
# UniProt Q9HD36, sequence (Q9HD36 whole entry, looked up): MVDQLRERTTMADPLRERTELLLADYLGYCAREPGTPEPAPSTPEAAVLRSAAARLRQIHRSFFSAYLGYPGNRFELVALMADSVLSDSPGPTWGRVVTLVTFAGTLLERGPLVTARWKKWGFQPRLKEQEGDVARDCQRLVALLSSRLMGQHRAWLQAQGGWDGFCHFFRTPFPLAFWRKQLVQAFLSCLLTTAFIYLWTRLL
row,Structure (SMILES),displacement [%]
1,COc1cc(/C=C2/C(=O)NN(c3ccc(Cl)cc3)C2=O)cc(Br)c1O,17.8
